Measurements taken from article PMC4342240.
Results are given in words; binding and its absence hold for the method and conditions named. Some binding calls cover weakened binding; strength is not graded here. For some assays here: Sequences can lack the tags named with a protein.

Chains of the proteins cited; added tags and fusions are not shown. Lines headed by an entry give the natural chain unless they say otherwise; changes in a name come on top. A line that says so, or that is headed by a name, gives the form on record, which may keep a tag or linker. Residues count along the entry.
UniProt P22336: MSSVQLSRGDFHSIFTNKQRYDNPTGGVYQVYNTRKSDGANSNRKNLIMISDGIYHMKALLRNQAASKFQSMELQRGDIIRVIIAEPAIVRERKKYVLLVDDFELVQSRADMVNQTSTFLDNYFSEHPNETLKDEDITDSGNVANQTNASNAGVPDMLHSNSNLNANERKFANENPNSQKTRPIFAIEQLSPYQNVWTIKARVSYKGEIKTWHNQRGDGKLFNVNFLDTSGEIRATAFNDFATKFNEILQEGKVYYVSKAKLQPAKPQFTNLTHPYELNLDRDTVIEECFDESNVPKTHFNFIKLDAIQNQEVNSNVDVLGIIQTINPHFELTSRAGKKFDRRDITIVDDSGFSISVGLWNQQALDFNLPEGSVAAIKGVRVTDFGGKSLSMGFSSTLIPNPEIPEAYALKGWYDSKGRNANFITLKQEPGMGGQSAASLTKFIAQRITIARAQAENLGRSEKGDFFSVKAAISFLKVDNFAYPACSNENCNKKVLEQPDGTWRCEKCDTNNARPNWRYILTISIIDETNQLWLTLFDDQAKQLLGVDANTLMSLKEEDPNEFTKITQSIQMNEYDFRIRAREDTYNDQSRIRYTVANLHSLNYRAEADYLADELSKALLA
BD-Rfa1-FLAB (lexA DNA binding domain fused to Rfa1 truncated at tryptophan 413; plasmid pGP1): residues 1-412 of P22336
UniProt P32599, residues 202-642: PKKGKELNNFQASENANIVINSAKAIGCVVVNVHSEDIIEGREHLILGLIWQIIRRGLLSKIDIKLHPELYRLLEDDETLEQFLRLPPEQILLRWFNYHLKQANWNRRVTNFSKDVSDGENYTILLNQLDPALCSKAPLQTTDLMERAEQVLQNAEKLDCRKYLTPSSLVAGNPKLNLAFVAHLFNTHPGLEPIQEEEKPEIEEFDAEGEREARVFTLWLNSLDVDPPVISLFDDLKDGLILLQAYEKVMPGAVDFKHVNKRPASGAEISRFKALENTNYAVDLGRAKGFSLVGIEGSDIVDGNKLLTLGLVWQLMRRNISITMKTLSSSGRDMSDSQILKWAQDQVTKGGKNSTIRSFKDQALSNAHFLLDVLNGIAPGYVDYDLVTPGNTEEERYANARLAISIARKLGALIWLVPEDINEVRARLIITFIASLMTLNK
UniProt P47110, residues 139-350: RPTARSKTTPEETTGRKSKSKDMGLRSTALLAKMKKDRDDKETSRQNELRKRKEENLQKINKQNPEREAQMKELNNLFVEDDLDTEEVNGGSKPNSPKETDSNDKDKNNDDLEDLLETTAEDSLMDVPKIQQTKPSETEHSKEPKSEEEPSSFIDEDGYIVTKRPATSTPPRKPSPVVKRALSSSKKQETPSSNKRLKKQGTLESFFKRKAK
UniProt P40562, residues 867-993: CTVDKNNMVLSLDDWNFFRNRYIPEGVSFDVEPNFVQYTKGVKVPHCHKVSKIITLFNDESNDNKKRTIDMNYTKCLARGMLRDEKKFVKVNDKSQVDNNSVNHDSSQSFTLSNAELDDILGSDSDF

Target: BD-Rfa1, full-length (lexA DNA binding domain fused to Rfa1; plasmids pSJH101 and pPM07) (S. cerevisiae) (UniProt P22336)
Experiment: two-hybrid; liquid beta-galactosidase (ONPG) assay in EGY188 with pSH18-34; pGAL-lexA bait plasmids and B42 prey induced with 2% galactose for 5 hr at 30°C; Miller units normalised to BD-Rfa1 (pPM07) with AD-Rad24-ΔN (pGP2)

Molecule	binding
AD-Rad24, full-length (plasmid pGP17) (protein, UniProt P32641 1-659) MDSTNLNKRPLLQYSLSSLGSQITKWSSSRPTSPVRKARSTENDFLSKQDTSSILPSINDDGGEQWYEKFKPNCLEQVAIHKRKLKDVQEALDAMFLPNAKHRILLLSGPSGCSKSTVIKELSKILVPKYRQNSNGTSFRSTPNEHKVTEFRGDCIVNDLPQMESFSEFLKGARYLVMSNLSLILIEDLPNVFHIDTRRRFQQLILQWLYSSEPLLPPLVICITECEIPENDNNYRKFGIDYTFSAETIMNKEILMHPRLKRIKFNPINSTLLKKHLKFICVQNMKMLKEKNKWNKRQEVIDYIAQETGDIRSAITTLQFWATSSGSLPISTRESTISYFHAIGKVIHGSHSTNNDNEMINNLFENSNNLLSKEDFKLGILENYNTFNKGEFSISDASSIVDCLSECDNMNGLPESNEYGLREVRKTFRNISKQGHNHGTVYFPREWKVRKLQNSFKVQAEDWLNVSLYKYNAVHSFRNITLEFGYYAPLIRKCQSYKKKYILYYLKNLPSGSSGPKQTMDKFSDIMKVENGIDVVDRIGGPIEALSVEDGLAPLMDNDSNNCDHLEDQKKERDRRLRMLIDQYERNVMMANDDLEDEETSFNDDPIVDSDSDNSNNIGNETFGRSDEDESLCEILSQRQPRKAPVISESLSDSDLEIL	binds
Rad24 C-terminal peptide rad24-650,652,654SSS→DDD (domain or fragment, UniProt P32641 461-659) EDWLNVSLYKYNAVHSFRNITLEFGYYAPLIRKCQSYKKKYILYYLKNLPSGSSGPKQTMDKFSDIMKVENGIDVVDRIGGPIEALSVEDGLAPLMDNDSNNCDHLEDQKKERDRRLRMLIDQYERNVMMANDDLEDEETSFNDDPIVDSDSDNSNNIGNETFGRSDEDESLCEILSQRQPRKAPVISEDLDDDDLEIL	binds
Rad24 C-terminal peptide rad24-650,652,654SSS→AAA (domain or fragment, UniProt P32641 461-659) EDWLNVSLYKYNAVHSFRNITLEFGYYAPLIRKCQSYKKKYILYYLKNLPSGSSGPKQTMDKFSDIMKVENGIDVVDRIGGPIEALSVEDGLAPLMDNDSNNCDHLEDQKKERDRRLRMLIDQYERNVMMANDDLEDEETSFNDDPIVDSDSDNSNNIGNETFGRSDEDESLCEILSQRQPRKAPVISEALADADLEIL	binds
Rad24 C-terminal peptide rad24-S637D (domain or fragment, UniProt P32641 461-659) EDWLNVSLYKYNAVHSFRNITLEFGYYAPLIRKCQSYKKKYILYYLKNLPSGSSGPKQTMDKFSDIMKVENGIDVVDRIGGPIEALSVEDGLAPLMDNDSNNCDHLEDQKKERDRRLRMLIDQYERNVMMANDDLEDEETSFNDDPIVDSDSDNSNNIGNETFGRSDEDESLCEILDQRQPRKAPVISESLSDSDLEIL	binds
Rad24 C-terminal peptide rad24-S637A (domain or fragment, UniProt P32641 461-659) EDWLNVSLYKYNAVHSFRNITLEFGYYAPLIRKCQSYKKKYILYYLKNLPSGSSGPKQTMDKFSDIMKVENGIDVVDRIGGPIEALSVEDGLAPLMDNDSNNCDHLEDQKKERDRRLRMLIDQYERNVMMANDDLEDEETSFNDDPIVDSDSDNSNNIGNETFGRSDEDESLCEILAQRQPRKAPVISESLSDSDLEIL	binds

Target: BD-Rfa1, full-length (lexA DNA binding domain fused to Rfa1; plasmids pSJH101 and pPM07) (S. cerevisiae) (UniProt P22336)
Experiment: two-hybrid; directed test by replica plating: EGY48 (6xOlexA-LEU2) with lexA bait, B42 prey and pSH18-34 (8xOlexA-lacZ); growth on SG-HTUL and/or blue colour on SG-HTU+X-gal; also done in EGY48 strains with rfa2-Dx or rfa2-Ax in place of RFA2 (Fig. 2E)

Molecule	binding
Sgs1 peptide containing central amino acids 421-792 (plasmid pGP3) (domain or fragment, UniProt P35187 421-792) YMTTRDEEKEENELLNQSDFDFVVNDDLDPTQDTDYHDNMDVSANIQESSQEGDTRSTITLSQNKNVQVILSSPTAQSVPSNGQNQIGVEHIDLLEDDLEKDAILDDSMSFSFGRQHMPMSHSDLELIDSEKENEDFEEDNNNNGIEYLSDSDLERFDEERENRTQVADIQELDNDLKIITERKLTGDNEHPPPSWSPKIKREKSSVSQKDEEDDFDDDFSLSDIVSKSNLSSKTNGPTYPWSDEVLYRLHEVFKLPGFRPNQLEAVNATLQGKDVFVLMPTGGGKSLCYQLPAVVKSGKTHGTTIVISPLISLMQDQVEHLLNKNIKASMFSSRGTAEQRRQTFNLFINGLLDLVYISPEMISASEQCKRA	binds
Rad24 C-terminal peptide 593,594DD→AA (domain or fragment, UniProt P32641 461-659) EDWLNVSLYKYNAVHSFRNITLEFGYYAPLIRKCQSYKKKYILYYLKNLPSGSSGPKQTMDKFSDIMKVENGIDVVDRIGGPIEALSVEDGLAPLMDNDSNNCDHLEDQKKERDRRLRMLIDQYERNVMMANAALEDEETSFNDDPIVDSDSDNSNNIGNETFGRSDEDESLCEILSQRQPRKAPVISESLSDSDLEIL	binds
Rad24 C-terminal peptide 598,599EE→AA (domain or fragment, UniProt P32641 461-659) EDWLNVSLYKYNAVHSFRNITLEFGYYAPLIRKCQSYKKKYILYYLKNLPSGSSGPKQTMDKFSDIMKVENGIDVVDRIGGPIEALSVEDGLAPLMDNDSNNCDHLEDQKKERDRRLRMLIDQYERNVMMANDDLEDAATSFNDDPIVDSDSDNSNNIGNETFGRSDEDESLCEILSQRQPRKAPVISESLSDSDLEIL	binds
Rad24-Δcoil (Rad24 C-terminal peptide with the predicted coil region deleted) (domain or fragment, UniProt P32641) EDWLNVSLYKYNAVHSFRNITLEFGYYAPLIRKCQSYKKKYILYYLKNLPSGSSGPKQTMDKFSDIMKVENGIDVVDRIGGPIEALSVEDGLAPLMDNDSNNCDHLEDQKKERDFNDDPIVDSDSDNSNNIGNETFGRSDEDESLCEILSQRQPRKAPVISESLSDSDLEIL	binds

Target: BD-Rfa1-FLAB (lexA DNA binding domain fused to Rfa1 truncated at tryptophan 413; plasmid pGP1) (S. cerevisiae) (UniProt P22336)
Experiment: two-hybrid; library screen: DupLEX-A system, bait BD-Rfa1-FLAB (pGP1) in EGY48 (6xOlexA-LEU2) with pSH18-34 (8xOlexA-lacZ), S. cerevisiae genomic DNA prey library in pJG4-5; selection by growth on SG-His-Trp-Ura-Leu at 30°C, retest on SD-HTUL and SG-HTUL; prey inserts sequenced

Molecule	binding
Rfa1 fragment from the two-hybrid library (fusion junction at aa 65) (from UniProt P22336 65-621) (domain or fragment)	binds
Sac6 fragment from the two-hybrid library (fusion junction at aa 202) (from UniProt P32599 202-642) (domain or fragment)	binds
Pol32 fragment from the two-hybrid library (fusion junction at aa 139) (from UniProt P47110 139-350) (domain or fragment)	binds
Mph1 fragment from the two-hybrid library (fusion junction at aa 867) (from UniProt P40562 867-993) (domain or fragment)	binds
Dna2 fragment from the two-hybrid library (fusion junction at aa 122) (domain or fragment, UniProt P38859 122-1522) PMEEVIWKYSPLQRDMSDKTTSAAEYSDDYEDVQNPSSTPIVPNRLKTVLSFTNIQVPNADVNQLIQENGNEQVRPKPAEISTRESLRNIDDILDDIEGDLTIKPTITKFSDLPSSPIKAPNVEKKAEVNAEEVDKMDSTGDSNDGDDSLIDILTQKYVEKRKSESQITIQGNTNQKSGAQESCGKNDNTKSRGEIEDHENVDNQAKTGNAFYENEEDSNCQRIKKNEKIEYNSSDEFSDDSLIELLNETQTQVEPNTIEQDLDKVEKMVSDDLRIATDSTLSAYALRAKSGAPRDGVVRLVIVSLRSVELPKIGTQKILECIDGKGEQSSVVVRHPWVYLEFEVGDVIHIIEGKNIENKRLLSDDKNPKTQLANDNLLVLNPDVLFSATSVGSSVGCLRRSILQMQFQDPRGEPSLVMTLGNIVHELLQDSIKYKLSHNKISMEIIIQKLDSLLETYSFSIIICNEEIQYVKELVMKEHAENILYFVNKFVSKSNYGCYTSISGTRRTQPISISNVIDIEENIWSPIYGLKGFLDATVEANVENNKKHIVPLEVKTGKSRSVSYEVQGLIYTLLLNDRYEIPIEFFLLYFTRDKNMTKFPSVLHSIKHILMSRNRMSMNFKHQLQEVFGQAQSRFELPPLLRDSSCDSCFIKESCMVLNKLLEDGTPEESGLVEGEFEILTNHLSQNLANYKEFFTKYNDLITKEESSITCVNKELFLLDGSTRESRSGRCLSGLVVSEVVEHEKTEGAYIYCFSRRRNDNNSQSMLSSQIAANDFVIISDEEGHFCLCQGRVQFINPAKIGISVKRKLLNNRLLDKEKGVTTIQSVVESELEQSSLIATQNLVTYRIDKNDIQQSLSLARFNLLSLFLPAVSPGVDIVDERSKLCRKTKRSDGGNEILRSLLVDNRAPKFRDANDDPVIPYKLSKDTTLNLNQKEAIDKVMRAEDYALILGMPGTGKTTVIAEIIKILVSEGKRVLLTSYTHSAVDNILIKLRNTNISIMRLGMKHKVHPDTQKYVPNYASVKSYNDYLSKINSTSVVATTCLGINDILFTLNEKDFDYVILDEASQISMPVALGPLRYGNRFIMVGDHYQLPPLVKNDAARLGGLEESLFKTFCEKHPESVAELTLQYRMCGDIVTLSNFLIYDNKLKCGNNEVFAQSLELPMPEALSRYRNESANSKQWLEDILEPTRKVVFLNYDNCPDIIEQSEKDNITNHGEAELTLQCVEGMLLSGVPCEDIGVMTLYRAQLRLLKKIFNKNVYDGLEILTADQFQGRDKKCIIISMVRRNSQLNGGALLKELRRVNVAMTRAKSKLIIIGSKSTIGSVPEIKSFVNLLEERNWVYTMCKDALYKYKFPDRSNAIDEARKGCGKRTGAKPITSKSKFVSDKPIIKEILQEYES	binds
Sgs1 peptide containing central amino acids 421-792 (plasmid pGP3) (domain or fragment, UniProt P35187 421-792) YMTTRDEEKEENELLNQSDFDFVVNDDLDPTQDTDYHDNMDVSANIQESSQEGDTRSTITLSQNKNVQVILSSPTAQSVPSNGQNQIGVEHIDLLEDDLEKDAILDDSMSFSFGRQHMPMSHSDLELIDSEKENEDFEEDNNNNGIEYLSDSDLERFDEERENRTQVADIQELDNDLKIITERKLTGDNEHPPPSWSPKIKREKSSVSQKDEEDDFDDDFSLSDIVSKSNLSSKTNGPTYPWSDEVLYRLHEVFKLPGFRPNQLEAVNATLQGKDVFVLMPTGGGKSLCYQLPAVVKSGKTHGTTIVISPLISLMQDQVEHLLNKNIKASMFSSRGTAEQRRQTFNLFINGLLDLVYISPEMISASEQCKRA	binds
Ptc1 fragment from the two-hybrid library (fusion junction at aa 185) (domain or fragment, UniProt P35182 185-281) LIMKSRVNGMLAVTRSLGDKFFDSLVVGSPFTTSVEITSEDKFLILACDGLWDVIDDQDACELIKDITEPNEAAKVLVRYALENGTTDNVTVMVVFL	binds
Mcm5 fragment from the two-hybrid library (fusion junction at aa 108) (domain or fragment, UniProt P29496 108-775) QSANNNDKDPENTSMDTDSLLLNSLPTFQLILNSNANQIPLRDLDSEHVSKIVRLSGIIISTSVLSSRATYLSIMCRNCRHTTSITINNFNSITGNTVSLPRSCLSTIESESSMANESNIGDESTKKNCGPDPYIIIHESSKFIDQQFLKLQEIPELVPVGEMPRNLTMTCDRYLTNKVIPGTRVTIVGIYSIYNSKNGAGSGRSGGGNGGSGVAIRTPYIKILGIQSDVETSSIWNSVTMFTEEEEEEFLQLSRNPKLYEILTNSIAPSIFGNEDIKKAIVCLLMGGSKKILPDGMRLRGDINVLLLGDPGTAKSQLLKFVEKVSPIAVYTSGKGSSAAGLTASVQRDPMTREFYLEGGAMVLADGGVVCIDEFDKMRDEDRVAIHEAMEQQTISIAKAGITTVLNSRTSVLAAANPIYGRYDDLKSPGDNIDFQTTILSRFDMIFIVKDDHNEERDISIANHVINIHTGNANAMQNQQEENGSEISIEKMKRYITYCRLKCAPRLSPQAAEKLSSNFVTIRKQLLINELESTERSSIPITIRQLEAIIRITESLAKLELSPIAQERHVDEAIRLFQASTMDAASQDPIGGLNQASGTSLSEIRRFEQELKRRLPIGWSTSYQTLRREFVDTHRFSQLALDKALYALEKHETIQLRHQGQNIYRSGV	binds
